For 1 molecule, Kd results are on record in US20230159603A1.

Assay [1] addresses CD122-Fc (UniProt P14784). Put plainly: SPR, construct immobilised, CD122-Fc flowed (row repeats r10). For orientation: In SPR one partner is held on a chip, and binding of the other changes the refractive index at the surface.
Assay [2] has as its target CD122-Fc (UniProt P14784). As to the kind of experiment: SPR, construct immobilised by amine coupling, CD122-Fc flowed, 25 C.

In general, Kd refers to the free concentration of one partner at which half of the binding sites on the other are occupied at equilibrium, for simple one-to-one binding. A low value points to higher affinity.

UniProt P14784, sequence (P14784 27-239 limits assumed): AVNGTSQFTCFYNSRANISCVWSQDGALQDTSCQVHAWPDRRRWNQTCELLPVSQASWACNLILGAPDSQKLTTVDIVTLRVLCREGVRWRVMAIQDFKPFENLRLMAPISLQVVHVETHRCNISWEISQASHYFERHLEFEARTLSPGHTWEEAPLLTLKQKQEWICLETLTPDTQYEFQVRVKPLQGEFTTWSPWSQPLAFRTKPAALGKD

B1: AK035 (Fc fusion, from a related filing)
chain: [human IgG1 Fc with changes left out here]PTSSSTKKTQLQLEHLLLDLQMILNGINNYKNPKLTAMLTAKFAMPKKATELKHLQCLEEALKPLEEVLNLAQSKNFHLRPRDLISNINVIVLELKGSETTFMCEYADETATIVEFLNRWITFAQSIISTLT
For B1, the Kd with CD122-Fc [1] and in the assay with CD122-Fc [2] was 110 nM throughout.
